In PubChem BioAssay AID504832 (National Center for Advancing Translational Sciences (NCATS), 2011):
About 18,000 (5.8%) of roughly 310,000 compounds were called active. This list was built around the results that the source calls inconclusive (neither active nor inactive); the mix of calls is not that of the screen. Calls come from the whole dose curve; as a rule, active = well fitted inhibition curve with a large enough effect; inconclusive = small, poorly fitted or top-dose-only effect, or another doubt; inactive = no such curve, though single readings can be large or run the other way. Potencies of inconclusive entries are left out as doubtful fits.

Experiment: Primary qHTS for delayed death inhibitors of the malarial parasite plastid, 48 hour incubation
Settings: P. falciparum luciferase growth in erythrocytes; series mostly up to 28.7 µM
In short: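 Erythrocytes infected with P. falciparum carrying an integrated firefly luciferase reporter (2% hematocrit, 0.1% parasitemia final) were exposed to compounds in RPMI 1640 with 0.5% Albumax at 37 C, 5% CO2. Growth inhibition was scored as reduced luminescence.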
Potency is the fitted concentration of half-maximal effect; tags give direction and shape of the fitted curve.

Structure (SMILES)	Potency
Cc1cc(=O)[nH]c(SCC(=O)Nc2ccc3c(c2)OCCO3)n1	inconclusive [inhibitor, full curve]
O=C(NC1CCCC1)C(c1ccc(F)cc1)N(Cc1ccccc1Cl)C(=O)CCl (stereo unspecified)	inconclusive [inhibitor, single point]
CC1(C)CC(=O)c2c(O)cc(OCC(=O)NCCc3ccc(S(N)(=O)=O)cc3)cc2O1	inconclusive [inhibitor, single point]
Cc1cc(-c2ccccc2)nc(SCc2ccc(C(=O)O)cc2)n1	inactive
CCN(Cc1nc2cc(Cl)ccc2c(=O)[nH]1)C(=O)c1cc2c(s1)CCCCC2	inactive
CCOC(=O)c1ccc(NC(=O)CCc2nc(-c3ccc(C)cc3)no2)cc1	inconclusive [inhibitor, single point]
Cc1cc(C(=O)N(Cc2nnc(-c3ccc(Cl)cc3)o2)C(C)C)c2ccccc2n1	active: 11.7 µM
Cc1cccc(C(=O)NCc2ccco2)c1	inactive
Nc1c(C(=O)OCC2CCCO2)c2nc3ccccc3nc2n1Cc1cccs1 (stereo unspecified)	inconclusive [inhibitor, partial curve, poor fit]
S=c1[nH]c(-c2ccccc2)cn1/N=C/c1ccc(Br)cc1	inconclusive [inhibitor, partial curve, poor fit]
CCOC(=O)Cc1csc(NC(=O)CCN2C(=O)c3cccc([N+](=O)[O-])c3C2=O)n1	inactive
COC(=O)c1ccc(COC(=O)c2ccc(-n3cnnn3)cc2)o1	inconclusive [inhibitor, full curve, poor fit]
Cc1cc(C)cc(-n2ncc3c2CCCC3NC(=O)c2cc(C)[nH]n2)c1 (stereo unspecified)	inactive
COc1ccc(-n2c(O)c(/C=N/NS(=O)(=O)c3cc(C)ccc3C)c3ccccc3c2=O)cc1OC	inconclusive [inhibitor, single point]
CCN(CC)S(=O)(=O)c1ccc(NC(=O)C2COc3ccccc3O2)cc1 (stereo unspecified)	inconclusive [inhibitor, single point]
Cc1c(C2=CCN(S(=O)(=O)c3ccc(Br)cc3)CC2)c2ccccc2n1C	inconclusive [inhibitor, single point]
COCCC(=O)N1CCC(Oc2ccc(C(=O)N3CCCC(CCCO)C3)cc2)CC1 (stereo unspecified)	inactive
CNC(=O)c1ccc(NC(=O)C2CCN(S(=O)(=O)c3cccc(C(F)(F)F)c3)CC2)cc1	active: 13.1 µM
O=C(NNC(=O)c1ccccc1F)C1=NN(c2ccccc2)C(=O)CC1	inconclusive [inhibitor, full curve]
Cc1noc(C)c1C(=O)N1CCC2(CC1)Oc1ccc(F)cc1C(=O)C21CC(c2ccc(Cl)cc2)=NO1 (stereo unspecified)	active: 11.7 µM
COc1ccc(CNC(=O)C2CCC(CNc3c(N4CCCCC4)c(=O)c3=O)CC2)cc1 (stereo unspecified)	inconclusive [inhibitor, partial curve]
COc1ccc(CC(=O)NCC(=O)N/N=C/c2c[nH]c3ccccc23)cc1	inconclusive [inhibitor, single point]

Structure (SMILES)	Potency
Cc1ccc(CNC(=O)C23CN(Cc4ccccc4)CC2C(c2ccc([N+](=O)[O-])cc2)=NO3)cc1 (stereo unspecified)	active: 11.7 µM
CCN(CC(=O)Nc1c(F)cccc1F)C(=O)C1CCN(C(=O)Nc2ccccc2)CC1	inconclusive [inhibitor, single point]
Cc1c(C)[n+](=O)c(-c2ccc(F)cc2)c(C)n1[O-]	inactive
CCc1c(C)nc2ncnn2c1N1CCC(C(=O)N2CCN(c3ccc(F)cc3)CC2)CC1	inconclusive [inhibitor, full curve]
Cn1nc([N+](=O)[O-])nc1Sc1ccc(C(C)(C)C)cc1	active: 13.1 µM
OCCc1ccc(-c2ccc(Cl)cc2)o1	inactive
c1ccc(-c2ccc(CN3C[C@@H]4C(c5ccccc5)C5(c6cccnc6)CC4(C5)[C@H]3c3ccccc3)cc2)cc1 (stereo partly specified)	active: 2.94 µM
Cc1nn(-c2ccc([N+](=O)[O-])cc2)c2c1C(c1ccc(OC(F)F)cc1)N1C(=N2)C(=O)Nc2ccccc21 (stereo unspecified)	inconclusive [inhibitor, full curve]
CCN(CC)S(=O)(=O)c1ccc(C(=O)Nc2ccc(OCC(=O)N3CCOCC3)cc2)cc1	inconclusive [inhibitor, partial curve]
CC(C)c1ccc(-c2nc(N3CCCCCC3)nc3n[nH]c(N)c23)cc1	inconclusive [inhibitor, single point]
COC(=O)C1=C(C)N(c2cccc(C)c2)C(=O)/C1=C\c1cccs1	inconclusive [inhibitor, single point]
CN1c2ccsc2/C(=N/Nc2ccc(F)cc2)CS1(=O)=O	inconclusive [inhibitor, partial curve, poor fit]
COCCNc1ccc(-c2n[nH]c(=O)c3ccccc23)cc1[N+](=O)[O-]	active: 4.65 µM
CC(=O)Nc1cccc(NC(=O)CSc2nc(=O)n(Cc3ccncc3)c3c2CCC3)c1	inconclusive [inhibitor, single point]
CN(C)S(=O)(=O)c1cccc(N=c2scc(-c3ccc4c(c3)NC(=O)CO4)n2CC2CCCO2)c1 (stereo unspecified)	inconclusive [inhibitor, partial curve]
C/C=C/C(=O)N1c2ccccc2C(C)=CC1(C)C	inconclusive [inhibitor, full curve, poor fit]
Cc1cc(C(=O)NNC(=O)/C=C/c2ccco2)c(C)o1	inconclusive [inhibitor, single point]
O=C(NC(NCCCN1CCOCC1)(C(F)(F)F)C(F)(F)F)C1CCCCC1	inconclusive [inhibitor, full curve, poor fit]
O=C(CCS(=O)(=O)c1cc(Br)cc2c1N(C(=O)C1CC1)CC2)N1CCN(c2ccccn2)CC1	inconclusive [inhibitor, single point]
Cc1ccc(CS(=O)Cc2ccc(C(=O)NC3CCCCC3)o2)cc1 (stereo unspecified)	inconclusive [inhibitor, partial curve]
CCCc1cc(C(=O)Nc2cc(Cl)ccc2O)no1	inconclusive [inhibitor, single point]
COc1ccc(CCNS(=O)(=O)c2ccc(C(=O)NCc3ccco3)cc2)cc1OC	inactive

Structure (SMILES)	Potency
Brc1ccccc1OCCCCCN1CCCC1	inconclusive [inhibitor, partial curve, poor fit]
Cc1cccc(OCCn2cccc2/C=C2/C(=O)NC(=O)N(Cc3ccco3)C2=O)c1	inactive
CCc1ccc(C(=O)N2CCC(c3nc4ccccc4s3)CC2)cc1	inactive
Cc1c(C(=O)Nc2nccs2)sc2nc(-c3cccs3)cc(C(F)(F)F)c12	inconclusive [inhibitor, single point]
CC(=NCCc1c(C)[nH]c2ccc(OC(F)(F)F)cc12)C1=C(O)CC(c2ccccc2)CC1=O (stereo unspecified)	inconclusive [inhibitor, single point]
Cc1ccc2c(c1)Oc1ccc([N+](=O)[O-])cc1C(=O)N2	inconclusive [inhibitor, full curve]
O=C(Nc1ccccc1Cl)c1ccc2nc(N3CCOCC3)sc2c1	inactive
O=C(CCC(=O)OCC(=O)c1ccc(Br)cc1)NC1CCCCC1	inactive
COc1ccc(N(C)S(=O)(=O)c2cccc(C(=O)Nc3cc(OC)ccc3OC)c2)cc1	inconclusive [inhibitor, partial curve, poor fit]
Cc1ccc(-n2nc(C)c(/C=N/NC(=O)c3cccs3)c2Cl)cc1	inconclusive [inhibitor, single point]
C[C@@H](C(=O)N1CCN(C(=O)OC(C)(C)C)CC1)n1cc(-c2cn([C@@H](C)C(=O)N3CCN(C(=O)OC(C)(C)C)CC3)nn2)nn1	inactive
COc1ccc(N(Cc2cc3cc(C)ccc3[nH]c2=O)C(C)=O)cc1	inconclusive [inhibitor, single point]
Cc1onc(-c2c(F)cccc2Cl)c1C(N)=S	inconclusive [inhibitor, single point]
CCOC(=O)c1c(CN2CCOCC2)n(-c2ccccc2)c2cc(Br)c(O)c(CN(C)C)c12	active: 13.1 µM
CCN(CC)C(=O)C1CCN(Cc2ccc(OCc3ccccc3)c(OC)c2)CC1	inconclusive [inhibitor, single point]
CS(=O)(=O)N1CCN(c2ccccc2NC(=S)NC(=O)c2cccs2)CC1	inconclusive [inhibitor, single point]
CCOc1c2ccc(C(=O)NCC34CC5CC(CC(C5)C3)C4)cc2nn1CC	inactive
CC(=O)NC1=NN(C(C)=O)C2(S1)C(=O)N(C(C)C)c1ccc(C)cc12 (stereo unspecified)	inconclusive [inhibitor, single point]
CCn1cc(C(=O)NN)c(=O)c2cc(F)c(NC3CCCCC3)cc21	inconclusive [inhibitor, single point]
CSc1cccc(CN2CCCC(CNC(=O)c3ccc(F)cc3)C2)c1 (stereo unspecified)	inconclusive [inhibitor, single point]
CN(Cc1cnccn1)C(=O)c1cc(COc2cccc(C(F)(F)F)c2)on1	inactive
Cn1cc([N+](=O)[O-])c(C(=O)Nc2sc3c(c2C#N)CCC3)n1	inactive
